The record followed here is the RNAGym collection of RNA variant scans (doi:10.1093/nar/gkz1192).

The labels stand for the following.
B1: CPEB3 Ribozyme (parent)
chain: UAACAGGGGGCCACAGCAGAAGCGUUCACGUCGCAGCCCCUGUCAGAUUCUGGUGAAUCUGCGAAUUCUGCUGUAUAUCUC

Read counts are not given, so values of variants with three or more changes are uncertain.

The variants in the series derive from B1. The series can be described thus: self-cleavage, relative activity (ratio to wild type); higher = more cleavage; in vitro, sequencing. Put shortly:
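Relative activity was defined as the cleaved/total read fraction for a variant divided by the same fraction for the unmutated ribozyme. CPEB3 self-cleaving ribozyme libraries were made by rounds of error-prone PCR, barcoded, and transcribed in vitro with T7 RNA polymerase for 5 hours at 37°C, and cleavage ran through transcription plus a 15 min DNase I step before EDTA. Illumina sequencing of template-switched reverse transcripts gave the reads, and DNA sequencing mapped the barcodes. Averages come from three batches, using variants with at least 5 reads.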
Consider UAAUAGGGGGCCACAGCGGAAGCGUUCACGUCGCAGCCCCUGUCAGAUCCUGGUGAAUCUGCGAAUUCUGCUGUAUAUCUC, for which the self-cleavage was found to be 0.26.

With UAAUGGGGGGCCACAGCGGAAGCGUUCACGUCGCAGCCCCUGUCGGAUUCUGGUGGAGCUGCGAAAUCUGCUGUAUAUCUC, the self-cleavage is 0.32.

For UAAUCGGGGGCCACUGCGGAAGCGUUCACGUCACAGCCCCUGUCAGAUUCUGGUGAGUCUGCGGAUUCUGCUGUAUAUCUC, the self-cleavage was found to be 0.07.

For UAAGAGGGGGCCAAAGCGGAAGCGUUCACGUCGCAGCCCCAGUCGGAUUCUGGCGAAUCUGCGAAUUCUGCUGUAUAUCUC, the self-cleavage came out at 0.07.

Turning to UAAAAGGGGGCCACAGCAGAAGCGUUCACGUCGCAGCCCCGGUCAGAUUCUGGUGAAUCUGCGAAUUCUGCAGUAUACCUC, the self-cleavage was 0.34.

As to UAAAAGGGGGCCACAGCAGAAGCGUUCACGUCGCAGCCCCAGUCAGAUUCUGGUGAAUCUGCGAAUUCAGCUGUAUAUCUC, the self-cleavage amounted to 0.14.

As for UAAAAGGGGGCCACAGCAGAAGCGUUCACGUCGCAGCCCCCGUCGGAUUCUGGUGGAUCUGCGAAUUCAGAUGUAUAUCUC, the self-cleavage is 0.19.

Consider UAAUAGGGGGCCACUGCAGAAGCGCCCACGUCGCAGCCCCUGUCGGAUUCUGGUGAAUCUGCGAAUUCUGCUGUAUAUCCC, for which the self-cleavage is 0.11.

In the case of UAAGAGGGGGCCACAGCAGAAGCAUUCACGUCGCGGCCCCUGUCAGAUUCUGGAGAAUCUGUGAAUUCUGCUGUAUAUCUC, the self-cleavage was 0.07.

On to UAAGAGGGGGCCACAGCUGAAGCGUUCUCGUCGCAGCCCCUGUCAGAUUCUGGUGAAUCUGCGAAUUCUGCUGCAUAUCUC, for which the self-cleavage amounted to 0.66.

In the case of UAAUAGGGGGCCACAGCAGUAGCGUUCACGUCGCAGCCCCUGUUAGAUUCUGGUGAAUCCGCGAAUUCUGCCGUAUACCUC, the self-cleavage is 0.06.

For the variant UAAGAGGGGGCCACAGCAGAAGCGUUCACGUCGCAGCCCCUGUCAGAUCCUGGUGAAUCUGCGAAUUCUGCUGUAUAUCAC, the self-cleavage worked out at 0.63.

As to UAAUCGGGGGCCACAGCAGAAGCGUUCACGUCGCAGCCCCUGUCAGAUUCUGGUGAAUCUGCGAAUUCUGCUGCAUAUAUC, the self-cleavage came to 1.26.

As to UAAUAGGGGGCCUCAGCAGAAGCGUUCACGUCGCAUCCCCUGUCAGAUUCUGGUGAAUCUGCGAAUUCUGCUGUAUAUCUC, the self-cleavage amounted to 0.43.

As for UAAUAGGGGGCCACAGCGGAAGCGUUCACGUCGCAGCCCCUGCCAGAUUCUGGUGAAUCUGCGAAUUCUGCUGUAUAUCUC, the self-cleavage was determined as 0.54.

On to UAAGAGGGGGCCACAGCAGAAGCGUUCACGUCGCAGCCCCUGCCAGAUUCUGGUGAAUCUGCGAAUUCUGCUGUAUUUCUC, for which the self-cleavage was 1.06.

Consider UAAUGGGGGGACACAGCAGAAGCGUUCACGUCGCAGCCCCUGUCAGAUCCUGGUGAAUCUGCGUAUUCCGCUGAAUAUCUC, for which the self-cleavage was determined as 0.

Take UAAGAGGGGGCCACAGCAGAAGCGUUCACGCCGCAGCCCCUGUCAGAUUCUGGUGAAUCUGCGAAUUCUGCUAUAAAUCUC: the self-cleavage is 1.24.

Regarding UAAGUGGGGGCCACAGCAGUAGCGUUCACGUCGCAGCCCCUGUCAGAUUCGGGUGAGUCUGCGAAUUCUGCUGUAUACCUC, the self-cleavage is 0.12.

With UAAUAGGGGGCCACAGCAGGAGCGUUCACGUCGCAGCCCCUGUCAGAUUCUGGUGAAUCUGCGAAUUCUGCUGUAUAUCUA, the self-cleavage was 1.19.

Turning to UAAUAGGGGGCCGCAGCAGAAGCGUUCACGUCGCAGCCCCUGUCAGAUUCUGGUGAAUCUGCGAAUUCCGCUGUAUAUCUC, the self-cleavage amounted to 0.38.

As to UAAGGGGGGGCCACAGCAGAAGCGUUCACGUCGCAGCCCCUGUCAGAUUCUGGUGAAUCCGCGAAUUCUGCUGUAUAUCUC, the self-cleavage was 0.43.

Take UAAUAGGGGGCCACGGCAGAAGCGUUCACGUCGCAGCCCAAGUAGGAUUCUGGUGAAUCUGCGAAUUCUGCUGUAUAUCUC: the self-cleavage amounted to 0.11.

Regarding UAAUGGGGGGCUACAGCAGAAGCGUUCACGUCGCAGCCCGUGUCAGAUUCUGGUGAAUCUGCGAAUUCUGCUGAAUAUCUC, the self-cleavage was 0.17.

As to UAAUAGGGGGCCACAGCAGGAGCGUUCACGUCGCAGCCCCUGUCAGAUUCUGGCGAAUCUGCGAAUUCUGCUGUAUAUCUC, the self-cleavage amounted to 0.83.

Consider UAAGAGGGGGCCACAGCAGAAGCGUUCACGUCGCAGCCCCUGCCAGAUUCUGGUGAAUCAGCGAAUUCUGCAGUACAUCUC, for which the self-cleavage turned out to be 0.16.

UAAUAGGGGGCCACAGCUGAGGCGUUCACGUCGCAGCCCCUGUCAGAUUCUGGUGAAUCUGCGAAUUCUGCUGUAUAUCUC: the self-cleavage is 0.15.

Regarding UAAUAGGGGGCCACGGCAGAAGCGCUCACGUCGCAGCCCCUGUCAGAUUCUGGUGUAUCUGCGGACUCUGCUGUAUAUCUC, the self-cleavage turned out to be 0.27.

Turning to UAAGAGGGGGCCACAGCAGAAGCGUUCCCGUCGCAGCCCCAGUCAGAUUCUGGUGAAUCUGCGAAUUCUGCUGUAUAUCUC, the self-cleavage came to 0.37.

As for UAAGAGGGUGCCACAGCUGAAGCGUUCACGUCGCGGCCCCUGCCAGAUUCUGGUGAAUCUGCGGAUUCUGCUGUAUAUCUC, the self-cleavage was 0.03.

As to UAAGAGGGGGCCACAGCAGAAGCGUUCACGUCGCCGCCCCUGUCAGACUCUGGUGAAUCCGCGAAUUCUGCUGUAUAUCUC, the self-cleavage worked out at 0.13.

Consider UAAUGGGGGGCCGCAGCAGAUGCGUUCACGUCGCAGCCCCUGUCAGAUUCUGGAGUAUCUGCGAAUUCUGCUGUAUAUCUC, for which the self-cleavage is 0.23.

In the case of UAAUAGGGGGCCACAGCGGAAGCGUUCGCGUCGCAGCCCCUGUCAGAUUCUGGUGAAUCUGCGAAUUCUGCUGUAUAACUC, the self-cleavage is 0.56.

Turning to UAAUAGGGGGCCACAGCAGGAGCGUUCACGUCGCGGCCCCUGUCGGAUUCUGGUGAAUCUGCGAAUUCAGCUGUAUAUCUC, the self-cleavage was 0.63.
